According to article PMC4336329 (PLoS ONE, 2015):
About 2,200 (0.71%) of roughly 310,000 compounds showed an effect of 50% or more. The effect is printed as a negative number. The list shows a part of the results.

Target: human ether-à-go-go-related gene (hERG) potassium channel (human, UniProt Q12809)
Assay: primary screen, population patch clamp on CHO cells stably expressing hERG

Chain of human ether-à-go-go-related gene (hERG) potassium channel (Q12809 whole entry, looked up): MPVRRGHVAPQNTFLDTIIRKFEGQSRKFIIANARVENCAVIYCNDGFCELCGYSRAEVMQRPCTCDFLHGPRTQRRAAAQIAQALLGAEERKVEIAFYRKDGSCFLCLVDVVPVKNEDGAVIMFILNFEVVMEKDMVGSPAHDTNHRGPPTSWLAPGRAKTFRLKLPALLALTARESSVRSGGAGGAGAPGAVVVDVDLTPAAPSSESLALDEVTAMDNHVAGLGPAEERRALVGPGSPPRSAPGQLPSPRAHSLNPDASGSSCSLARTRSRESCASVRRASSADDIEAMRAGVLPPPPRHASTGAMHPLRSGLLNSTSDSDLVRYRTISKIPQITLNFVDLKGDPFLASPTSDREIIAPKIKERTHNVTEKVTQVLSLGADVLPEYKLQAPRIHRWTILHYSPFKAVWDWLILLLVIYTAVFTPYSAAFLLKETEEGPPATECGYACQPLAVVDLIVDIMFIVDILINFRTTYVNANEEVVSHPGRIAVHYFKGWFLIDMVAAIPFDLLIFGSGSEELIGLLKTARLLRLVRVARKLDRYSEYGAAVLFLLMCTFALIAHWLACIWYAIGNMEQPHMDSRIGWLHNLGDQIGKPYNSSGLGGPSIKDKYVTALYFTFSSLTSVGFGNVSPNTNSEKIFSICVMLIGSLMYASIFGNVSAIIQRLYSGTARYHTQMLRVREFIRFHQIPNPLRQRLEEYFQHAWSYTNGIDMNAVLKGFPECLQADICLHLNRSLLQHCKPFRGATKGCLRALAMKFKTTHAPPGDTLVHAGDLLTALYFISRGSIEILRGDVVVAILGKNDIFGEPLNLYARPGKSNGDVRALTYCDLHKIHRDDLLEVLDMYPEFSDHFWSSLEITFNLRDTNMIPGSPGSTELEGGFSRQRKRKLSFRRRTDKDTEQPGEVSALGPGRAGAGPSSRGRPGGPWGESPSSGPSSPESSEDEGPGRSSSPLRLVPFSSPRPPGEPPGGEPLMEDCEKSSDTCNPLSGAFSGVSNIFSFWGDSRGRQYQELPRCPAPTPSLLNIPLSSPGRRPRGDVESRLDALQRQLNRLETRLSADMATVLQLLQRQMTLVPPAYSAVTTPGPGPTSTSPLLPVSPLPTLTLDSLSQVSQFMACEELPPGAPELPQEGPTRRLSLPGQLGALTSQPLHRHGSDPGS

| SMILES | hERG current change (%, negative = inhibition) at 1uM [%] |
| --- | --- |
| CC1=NNC(=O)/C1=C\c1cn(-c2ccccc2)nc1-c1ccc(Cl)cc1 | 2.82 |
| Cc1cc(N2CCOCC2)nc2ccc(NC(=O)CCC(=O)N3CCN(c4ccccc4F)CC3)cc12 | 15.1 |
| CC(C)OC(=O)CSc1nnc(-c2ccccn2)n1C | 9.65 |
| CCOc1nc(Nc2ccc(OC)cc2OC)nc(OCC)n1 | 9.98 |
| Cc1cc(C)cc(CC2CC(=O)N(c3cc(C)on3)C2=O)c1 (stereo not shown) | 12 |
| Oc1c(C=Nc2cccnc2)sc2ccccc12 | 12.9 |
| COc1ccc(/C=N/Nc2nc(-c3cccnc3)nc3ccccc23)cc1OC | -5.12 |
| O=C(Cn1cc(S(=O)(=O)Cc2ccc([N+](=O)[O-])cc2)c2ccccc21)N1CCOCC1 | 14.6 |
| Cn1nc(-c2ccccc2)nc1-c1ccccc1 | -0.0145 |
| Cc1ccc(NS(=O)(=O)c2ccccc2[N+](=O)[O-])cc1C | 7.05 |
| COc1cccc(NC(=O)CCNS(=O)(=O)c2ccc3c(c2)oc(=O)n3C)c1 | 7.98 |
| O=C(CSc1ccc(-c2cccnc2)nn1)N1CCCCC1 | 14.1 |
| CCCCN1CCCC1CNC(=O)c1cc(C#N)c2ccccc2c1OC (stereo not shown) | -43.1 |
| CCOC(=O)c1c(C)n(-c2ccccc2)c2ccc(O)c(CN(C)C)c12.Cl | 7.01 |
| O=C(O)C1CCC(=O)N(C2CC2)C1c1ccccc1 (stereo not shown) | 18 |
| S=C(NCc1ccccc1)N1CCN(c2cccc(Cl)c2)CC1 | 4.35 |
| CCCCN1C(=O)C2C3C=CC(C2C1=O)C1C2C(=O)N(CCCC)C(=O)C2C31 (stereo not shown) | -10.9 |
| O=C(CCc1nnc2ccc(NCc3ccc(F)cc3)nn12)NC1CCCC1 | 9.56 |
| CC(C)NC(=O)NC(=O)CSc1ccccc1F | 4.81 |
| Cc1ccc(Nc2cc(C(=O)NCCCN3CCOCC3)c3ccccc3n2)c(C)c1 | 4.55 |
| COc1ccc(NC(=O)CSc2nnc(-c3cccs3)n2-c2ccccc2)cc1 | -5.84 |
| CCn1nc(C)cc1C(=O)Sc1ccc(Cl)cc1Cl | 11.1 |
| O=C1CC(c2ccccc2)c2c(O)cc(O)cc2O1 (stereo not shown) | 8.1 |

| SMILES | hERG current change (%, negative = inhibition) at 1uM [%] |
| --- | --- |
| CC[n+]1ccc(C)c2cc(S(=O)C(F)(F)F)ccc21.Cc1ccc(S(=O)(=O)[O-])cc1 (stereo not shown) | -2.44 |
| O=C(OCC(=O)c1ccc[nH]1)c1ccc2ccccc2n1 | 13.1 |
| Br.Cn1c(=N)n(CC(=O)c2ccc(Cl)c(Cl)c2)c2ccccc21 | -11 |
| COCCn1c(CN2CCN(c3ccc(OC)cc3)CC2)nc2c1c(=O)n(C)c(=O)n2C | 6.54 |
| O=C(NCc1ccco1)c1cc(-c2ccc(Cl)cc2)on1 | 26.4 |
| O=[N+]([O-])c1ccc(SCCc2cc[nH+]cc2)cc1.[Cl-] | -5.18 |
| CNC(=O)COC(=O)c1ccc2c(c1)S(=O)(=O)c1ccccc1C2=O | 11.3 |
| O=S(=O)(NCc1ccc(F)cc1)c1cccc(S(=O)(=O)N2CCOCC2)c1 | -4.7 |
| COc1cc(OC)cc(C(=O)N[C@@H](CCSC)c2nc3ccccc3[nH]2)c1 | 20.3 |
| COc1ccc(CNC(=O)CSCc2ccccc2Cl)cc1 | 10.1 |
| Cc1nc(N)sc1N=Nc1ccc(F)cc1 | -1.66 |
| Cc1cc(Br)ccc1OCCCCN1CCC(C)CC1.O=C(O)C(=O)O | -47.7 |
| CCCC(C)NC(=O)c1cc(C(=O)OC)cc([N+](=O)[O-])c1 (stereo not shown) | 7.72 |
| CN(C)C=O.N#Cc1c(N)nc2c3c(sc(=N)c2c1N)NC(=O)CC3c1ccccc1Cl (stereo not shown) | 15.1 |
| COC(=O)Cc1csc(NC(=O)CSc2nnc3ccccn23)n1 | 15.7 |
| N/C(Cc1ccc(Cl)cc1)=N\OC(=O)c1cccc2ccccc12 | 10.2 |
| O=C(NNC(=S)NC(=O)c1ccc(F)cc1)c1cccnc1 | 15.8 |
| CCOc1cc(/C=C/c2nc3cc(C)c(C)cc3s2)ccc1OCC(=O)N1CCOCC1 | 6.46 |
| COC(=O)c1ccc(C2=NOC(C)(c3sc(-c4ccccc4)nc3C)C2)cc1 (stereo not shown) | 23.4 |
| Cn1c(=O)c2c(nc(CN3CCOCC3)n2CCN2CCOCC2)n(C)c1=O | 7.62 |
| CC(C)CC(NC(=O)CC12CC3CC(CC(C3)C1)C2)C(=O)NC1=NCCS1 (stereo not shown) | 23.2 |
| Nc1ccccc1Sc1c[nH]c2ccccc12 | 14.1 |
| O=S(=O)(c1ccc(Oc2ccc(Br)cc2)cc1)N1CCOCC1 | 5.92 |

| SMILES | hERG current change (%, negative = inhibition) at 1uM [%] |
| --- | --- |
| COc1ccc(S(=O)(=O)NNC(=O)C23CC4CC(CC(C4)C2)C3)cc1[N+](=O)[O-] | 11.6 |
| O=C(CCc1ccccc1)n1nc(-c2ccccc2)nc1NCc1ccco1 | 15.6 |
| OCCN(C=NC1=NN(c2cccc(C(F)(F)F)c2)CC1)CCO | 7.14 |
| COc1ccc(C2C(C(=O)NCCN3CCOCC3)c3ccccc3C(=O)N2C)cc1OC (stereo not shown) | 12.4 |
| C=CCn1c(SCC(=O)NCCCC(=O)OCC)nc2scc(-c3ccco3)c2c1=O | -17.2 |
| COCCNC(=O)c1ccc(CSc2nc3ccccc3s2)cc1 | 3.95 |
| CCCOC(=O)Nc1c(C)cccc1C(C)C | 6.18 |
| O=C(NC(=S)N1CCN(c2c(Cl)cccc2[N+](=O)[O-])CC1)c1cccs1 | 9.7 |
| OCCN(CCO)c1nc2ccccc2[nH]1 | 6.28 |
| COC(=O)COc1ccc(S(=O)(=O)NCc2ccncc2)cc1 | -0.0031 |
| Cc1ccc(Sc2c(CO)c(-c3ccccc3)nn2C)cc1 | 8.89 |
| Cc1cc2ncc(C(=O)N=CN(C)C)cn2n1 | 3.01 |
| Cc1ccc(CNC(=O)Cc2cn(C)c3ccccc23)cc1 | 14.1 |
| CCOc1ccccc1-c1nc(CN2CCCC2c2nccs2)c(C)o1 (stereo not shown) | 14.1 |
| C=CCSc1nc(N)c2c(C)c(C)sc2n1 | -9.39 |
| CC1(C)CC(=O)C=C(NCCN2CCN(C(=O)Nc3ccc(Cl)c(Cl)c3)CC2)C1 | 6.23 |
| O=C(Nc1c2c(nc3ccccc13)CCCC2)c1cccc([N+](=O)[O-])c1 | 5.18 |
| CCC(C)c1ccc(S(=O)(=O)N2CCN(c3ccccn3)CC2)cc1 (stereo not shown) | 15.4 |
| Cc1ccc(S(=O)(=O)NC(=O)Nc2c(C)cccc2C)cc1 | 11.3 |
| CC12CN(S(=O)(=O)c3ccccc3)CC(C)(CN(S(=O)(=O)c3ccccc3)C1)C2 | -3.94 |
| CCOc1ccc(OCCSc2nc(-c3ccccc3)cc(=O)[nH]2)cc1 | 17.9 |
| CCC1CCCCN1C(=O)CSc1nc(N)cc(=O)[nH]1 (stereo not shown) | 13.2 |
| CC1(C)CC(=O)C=C(Nc2ccc(F)cc2F)C1 | 9.38 |

| SMILES | hERG current change (%, negative = inhibition) at 1uM [%] |
| --- | --- |
| COc1ccc(-c2ccc(SCC(=O)NCc3ccco3)nn2)cc1 | 2.77 |
| O=C(COC(=O)CNS(=O)(=O)c1ccc(F)c(F)c1F)NC1CCCC1 | 3.05 |
| COc1ccc(OCCOCCN2CCOCC2)cc1 | 13.8 |
| O=C(CN1CCNC(=O)C1)NCCc1ccc(Cl)cc1Cl | -0.179 |
| c1ccc(-n2ncc3c2ncn2nc(CSc4nc5ccccc5s4)nc32)cc1 | 14.3 |
| CC1CC(C)CN(C(=O)Nc2ccccc2F)C1 (stereo not shown) | 9.24 |
| COc1ccc(C(=O)C[n+]2cccc(C)c2)cc1.[Br-] | 12.8 |
| COc1ccc(CN2C(=O)CCCc3ccccc32)cc1 | 11.9 |
| Cc1cccc(OCCC(=O)NCC(c2ccccc2)N(C)C)c1 (stereo not shown) | 9.58 |
| CC(=O)Nc1ccc(NC(=O)c2ccc(Cn3cc(Cl)cn3)cc2)cc1 | 3.13 |
| CC(=O)c1sc(NC(=O)COc2ccc(Br)cc2)nc1C | 13 |
| Cc1ccccc1NS(=O)(=O)c1cc(C(=O)NCCC2=CCCCC2)ccc1Cl | 3.5 |
| O=C(CSc1nnc2ccccn12)NNC(=O)c1ccccc1 | 11.4 |
| COC(=O)Cn1c(O)c(N=NC(=O)CNC(=O)COc2cccc(C)c2)c2ccccc21 | 1.15 |
| COC(=O)Nc1ccc2c(c1)N(C(=O)CCN1CCN3CCCC3C1)c1ccccc1S2.Cl (stereo not shown) | -13.3 |
| O=C(CCN1C(=O)c2ccccc2C1=O)NC(=S)Nc1ccccc1Cl | 5.29 |
| COc1ccc(C(=O)CCC(=O)Nc2cccnc2)cc1OC | 14.2 |
| S=C(NCCc1ccccn1)Nc1ccccc1 | 6.24 |
| COc1cc(C(=O)NCCCNc2nc3cc(C)cc(C)c3cc2C#N)cc(OC)c1OC | 10.6 |
| O=C(CSCc1ccc(Br)cc1)Nc1ccc(S(=O)(=O)N2CCCCCC2)cc1 | 11.8 |
| CCSc1cc(Cl)nc(N)n1 | 10.4 |
| CC1CCN(C(=O)Cn2c(=O)c3cccn3c3ccccc32)CC1 | 4.26 |
